Data reported in the supplement of paper PMC7826260.
The other results are listed elsewhere or left out. Viral Rep nickase domains cut single-stranded DNA in vitro (1 h at 37 °C, 3 µM enzyme); the outer parts of the 90-letter strands are left off. Values are log2 of uncut reads against the no-enzyme pool; uncut sequences lie near 0, cut ones below; no hit call is given. The scaling is to total reads; where an enzyme cuts many sequences, the uncut ones exceed 0.

Experiments:
Experiment in all cases: uncleaved DNA left, log2 of reads against the no-enzyme library (log2 ratio); higher = less cleavage (more negative = more Rep cleavage of the k-mer); sequences stand for … in CTCGTCCG…ACCGGAGA
[1] = system: T1, Rep nickase domain of Muscovy duck circovirus
T1 sequence (Rep 1-111, printed without the tag): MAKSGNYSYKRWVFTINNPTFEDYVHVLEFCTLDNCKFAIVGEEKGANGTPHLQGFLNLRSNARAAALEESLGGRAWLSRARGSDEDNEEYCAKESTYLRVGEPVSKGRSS
Protocol: (§1)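 A pool of 90-nt single-stranded DNAs with seven random bases just before the constant AC of the nick site (name = the seven bases) was cut by 3 µM recombinant His6-SUMO-tagged Rep nickase domain (300 nM DNA, 50 mM HEPES pH 8.0, 50 mM NaCl, 1 mM MnCl2, 1 h, 37 °C, three replicates). Uncut DNA was amplified and sequenced.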

[2] = system: T2, Rep nickase domain of banana bunchy top virus
T2 sequence (Rep 1-94, printed without the tag): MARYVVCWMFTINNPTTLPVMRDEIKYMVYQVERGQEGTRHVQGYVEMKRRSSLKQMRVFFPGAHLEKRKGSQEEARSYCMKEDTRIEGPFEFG
Protocol: as §1

[3] = system: T3, Rep nickase domain of cabbage leaf curl virus
T3 sequence (Rep 1-116, printed without the tag): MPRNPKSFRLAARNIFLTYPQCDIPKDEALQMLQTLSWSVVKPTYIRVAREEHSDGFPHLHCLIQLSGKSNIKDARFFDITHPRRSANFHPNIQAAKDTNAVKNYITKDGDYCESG
Protocol: as §1

[4] = system: T4, Rep nickase domain of chickpea chlorotic dwarf virus
T4 sequence (Rep 1-124, printed without the tag): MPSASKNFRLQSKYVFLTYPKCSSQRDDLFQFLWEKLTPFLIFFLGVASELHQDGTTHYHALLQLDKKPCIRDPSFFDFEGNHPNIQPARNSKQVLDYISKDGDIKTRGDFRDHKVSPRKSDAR
Protocol: as §1

[5] = system: T5, Rep nickase domain of faba bean necrotic yellows virus
T5 sequence (Rep 1-98, printed without the tag): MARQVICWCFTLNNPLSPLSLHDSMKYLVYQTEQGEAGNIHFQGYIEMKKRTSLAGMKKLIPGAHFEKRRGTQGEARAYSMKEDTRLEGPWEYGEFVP
Protocol: as §1

[6] = system: T6, Rep nickase domain of maize striate mosaic virus
T6 sequence (Rep 1-117, printed without the tag): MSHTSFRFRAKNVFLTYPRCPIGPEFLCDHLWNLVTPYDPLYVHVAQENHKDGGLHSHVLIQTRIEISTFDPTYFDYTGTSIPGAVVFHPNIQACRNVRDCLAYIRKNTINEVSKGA
Protocol: as §1

[7] = system: T7, Rep nickase domain of porcine circovirus 2
T7 sequence (Rep 2-116, printed without the tag): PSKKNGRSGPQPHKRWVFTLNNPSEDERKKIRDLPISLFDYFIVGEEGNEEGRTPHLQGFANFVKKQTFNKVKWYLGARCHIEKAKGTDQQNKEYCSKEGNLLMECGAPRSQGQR
Protocol: as §1

[8] = system: T8, Rep nickase domain of tomato golden mosaic virus
T8 sequence (Rep 1-124, printed without the tag): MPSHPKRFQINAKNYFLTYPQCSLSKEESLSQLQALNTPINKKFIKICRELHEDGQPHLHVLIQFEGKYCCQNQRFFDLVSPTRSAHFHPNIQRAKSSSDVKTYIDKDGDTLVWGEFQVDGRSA
Protocol: as §1

[9] = system: T9, Rep nickase domain of tomato yellow leaf curl virus
T9 sequence (Rep 1-136, printed without the tag): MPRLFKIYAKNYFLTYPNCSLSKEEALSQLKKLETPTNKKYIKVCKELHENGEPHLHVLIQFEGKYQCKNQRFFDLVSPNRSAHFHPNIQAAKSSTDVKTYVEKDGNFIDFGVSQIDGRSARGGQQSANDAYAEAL
Protocol: as §1

[10] = system: T10, Rep nickase domain of wheat dwarf virus
T10 sequence (Rep 1-137, printed without the tag): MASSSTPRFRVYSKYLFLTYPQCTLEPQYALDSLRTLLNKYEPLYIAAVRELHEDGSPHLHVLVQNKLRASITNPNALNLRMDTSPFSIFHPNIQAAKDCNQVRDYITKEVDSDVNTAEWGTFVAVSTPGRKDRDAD
Protocol: as §1

Row | Sequence | uncleaved DNA left (log2) [1] | uncleaved DNA left (log2) [2] | uncleaved DNA left (log2) [3] | uncleaved DNA left (log2) [4] | uncleaved DNA left (log2) [5] | uncleaved DNA left (log2) [6] | uncleaved DNA left (log2) [7] | uncleaved DNA left (log2) [8] | uncleaved DNA left (log2) [9] | uncleaved DNA left (log2) [10]
1 | ACCATGC | -0.101 | 0.122 | -0.166 | 0.775 | 0.17 | 0.207 | 0.12 | -0.00717 | 0.0777 | -0.0466
2 | ACGTCAG | 0.166 | -0.0339 | -0.534 | -0.281 | 0.063 | -1.08 | 0.202 | 0.109 | -0.0054 | 0.0238
3 | TGTAGCC | 0.091 | 0.0407 | 0.128 | 0.272 | 0.0894 | -0.177 | 0.102 | -0.0205 | 0.0184 | 0.131
4 | CACACGA | 0.0352 | -0.129 | -0.301 | -0.447 | 0.036 | -0.798 | 0.194 | -0.0827 | -0.138 | -0.00785
5 | ACAGTTT | -0.154 | -0.000194 | -0.218 | -0.884 | -0.00667 | -0.232 | -0.0289 | -0.0043 | -0.155 | -0.18
6 | AAGTCTG | 0.0863 | 0.0501 | 0.342 | 1.44 | 0.0603 | 1.72 | 0.0372 | -0.0601 | -0.0617 | 0.0185
7 | GGATGCA | 0.0435 | -0.0276 | 0.343 | 0.911 | 0.0308 | 0.779 | 0.00395 | -0.0359 | -0.0403 | 0.11
8 | ATTTGAG | 0.0216 | 0.016 | -0.625 | 0.369 | 0.105 | -0.817 | 0.196 | -0.0368 | 0.116 | -0.0327
9 | AGGCCAC | -0.0622 | 0.027 | 0.309 | 0.323 | 0.0556 | 0.83 | 0.0725 | -0.0398 | -0.00174 | 0.0237
10 | GGACACC | 0.104 | 0.0264 | 0.757 | 1.8 | -0.0577 | 2.19 | 0.231 | 0.0499 | 0.0219 | 0.211
11 | TTGATGA | 0.0247 | -0.0415 | -0.114 | -0.0962 | 0.159 | -0.872 | 0.111 | -0.0317 | 0.0106 | -0.0397
12 | GAAAGAC | 0.0234 | 0.0183 | 0.437 | 1.2 | -0.17 | 1.32 | 0.189 | -0.0425 | -0.0379 | 0.0775
13 | TTCAATA | -0.0513 | 0.0628 | 0.0819 | -0.827 | -0.0986 | 0.188 | -0.112 | -0.0462 | 0.089 | 0.0442
14 | TGGTTGC | -0.0424 | -0.159 | -0.736 | -0.52 | 0.0239 | -0.746 | -0.00342 | -0.104 | 0.0311 | -0.256
15 | CTCGCAT | 0.061 | 0.00474 | -0.174 | -0.499 | 0.0465 | -0.583 | -0.187 | -0.0363 | 0.064 | -0.0192
